Measured values published in PMC6662813 (Scientific Reports, 2019).

Biological target: T1, His-cRaf-(R), regulatory domain fragment of cRaf (aa 51-187) (mouse, UniProt Q99N57-2 partial chain)
T1 construct: cRaf (Raf1), mouse cDNA NM_001356333.2, aa 51-187 (regulatory domain with the RBD and the cysteine rich domain), in pET-32a; also called His-c-Raf fragment; cRaf RBD; source: E. coli Rosetta DE3 (pET-32a), captured on Ni-NTA agarose beads (pull-downs); purified (Ni-NTA) and concentrated (NMR)
Test: NMR titration; 1H-15N HSQC at 25 C; 19 uM 15N-labeled Crabp1 with atRA (40 uM or 21 uM) and increasing unlabeled His-c-Raf-(R); 30 mM d11-Tris-d3-acetate pH 6.2, 75 mM Na2SO4, 10 uM ZnCl2, 1 mM DTT; KD roughly estimated from the shifts of three resonances
Conditions: both partners purified

Kd: ~40 µM
B1: His-Crabp1 (cellular retinoic acid binding protein 1) (natural protein)
chain: not shown
notes: uniformly 15N-labelled for the NMR titrations; No removal of the His tag is described; also called purified His-Crabp1; 15N-labeled Crabp1; source: E. coli Rosetta DE3 (pET-15b), purified (Ni-NTA); not shown: His6, N-terminal, kept
